Structures are written as SMILES. The whole screen tested about 45,000 compounds, of which about 65 (0.1%) were called active. Calls follow the shape of the dose curve; as a rule, active = well fitted activation curve with a large enough effect; inconclusive = small, poorly fitted or top-dose-only effect; inactive = no such curve, though single readings can be large or run the other way. The list shows a part of the results.

In the experiment the target is Galactocerebrosidase (Homo sapiens) (UniProt P54803). Put plainly: A Novel Cell-Based Assay to Identify Small Molecules for B -Galactocerebrosidase. Also: 0% is about no effect; nearly all actives have a fitted effect of over 65% in size. As to conditions: 145M-Twi-hGALC-G270D cells (Twitcher mouse brain line with human GALC G270D), HMU-beta-Gal fluorescence, 48 h; series mostly up to 57.5 µM; activation: at the top concentration. The gist of the method: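 Fluorogenic HMU-b-Gal hydrolysis (0.1 mM final, pH 5.2 citrate-phosphate with 1 mg/mL sodium taurocholate; carbonate stop buffer) measures mutant GALC activity after compound treatment of live 145M-Twi Twitcher brain cells stably carrying human GALC-G270D, with wild-type GALC line alongside; activation sought.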
UniProt P54803, sequence (P54803 whole entry, looked up): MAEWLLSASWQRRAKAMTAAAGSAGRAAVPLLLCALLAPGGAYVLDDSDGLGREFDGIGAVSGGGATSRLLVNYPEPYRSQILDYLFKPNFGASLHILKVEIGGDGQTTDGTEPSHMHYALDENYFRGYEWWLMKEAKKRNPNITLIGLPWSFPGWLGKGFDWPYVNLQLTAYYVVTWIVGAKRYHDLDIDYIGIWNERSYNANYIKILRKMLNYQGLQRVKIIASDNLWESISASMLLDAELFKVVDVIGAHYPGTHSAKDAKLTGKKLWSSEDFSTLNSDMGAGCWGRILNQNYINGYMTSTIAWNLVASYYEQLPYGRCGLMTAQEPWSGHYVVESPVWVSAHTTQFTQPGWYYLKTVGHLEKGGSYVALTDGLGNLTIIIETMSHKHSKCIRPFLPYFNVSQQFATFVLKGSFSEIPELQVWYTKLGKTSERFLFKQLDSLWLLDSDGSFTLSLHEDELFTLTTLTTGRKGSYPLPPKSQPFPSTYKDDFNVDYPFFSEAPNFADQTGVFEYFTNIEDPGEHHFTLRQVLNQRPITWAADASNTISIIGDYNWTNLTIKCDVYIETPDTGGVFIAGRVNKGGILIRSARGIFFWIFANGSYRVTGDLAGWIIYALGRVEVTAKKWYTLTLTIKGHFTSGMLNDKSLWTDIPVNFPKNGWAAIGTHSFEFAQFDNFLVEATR
For the molecule `CCOC(=O)Cc1ccc(NC(=O)N2CCc3c(sc4c3CCCC4)C2c2ccc(F)cc2)cc1` (configuration not stated), the “activation” value is inactive: -21.4%.
Next, `Cc1ccc(NC(=O)[C@H]2O[C@@H]3OC(C)(C)O[C@@H]3[C@H]3OC(C)(C)O[C@H]32)cc1F`: inactive: -9.33%; `Cc1ccc(NC(=O)c2cccc(N3CCCS3(=O)=O)c2)cc1C`: inactive: 3.25%.
Next, `CC(C(=O)Nc1ccccc1C(F)(F)F)n1nnc2sc3c(c2c1=O)CCCC3` (configuration not stated): inactive: -17.7%; `Nc1ncnc2c1ncn2Cc1c(F)cccc1Cl`: inactive: -19.5%.
Next, `CSc1nc(Nc2ccc(C)cc2)c(C#N)c(-c2ccccc2)n1`: inactive: -20.3%.
With `Cc1ccc2c(c1)C(c1ccccc1)N(C(=O)c1ccc(S(=O)(=O)N3CCCCC3)cc1)CC(=O)N2` (configuration not stated), the “activation” value was inactive: -15.2%.
To `O=C(NCCn1cc(SCc2ccccc2F)c2ccccc21)c1cccs1` belongs inactive: -14.4%; to `CCc1ccc(CNC(=O)CSc2c3c(nc4ccc(Cl)cc24)CCCC3)cc1`, inactive: -6.4%.
To `CCS(=O)(=O)NCC(c1ccco1)N1CCN(c2ccccc2)CC1` (configuration not stated) belongs inactive: 22.5%.
To `O=c1c(=O)n(-c2ccccc2)ccn1Cc1cccc(C(F)(F)F)c1` belongs inactive: -12%; to `O=C(NCc1ccc(F)cc1)c1ccc(CS(=O)Cc2ccc(Cl)cc2)o1` (configuration not stated), inactive: -25.6%; to `Cc1ccc(NC(=O)c2cc3nc(-c4ccc5c(c4)OCO5)cc(C(F)(F)F)n3n2)cc1Cl`, inactive: -16.6%.
For `Cc1ccc(CSc2ncc(Cl)c(C(=O)Nc3nc4ccc(C)cc4s3)n2)cc1`, the “activation” value was inactive: -15.2%.
Next, `Oc1c(C(c2ccccc2)N2CCN(c3cccc(Cl)c3)CC2)sc2nc(-c3ccco3)nn12` (configuration not stated): inactive: -16%; `COc1cc(Cl)c(NC(=O)c2cc(CN3CCCC3)on2)c(OC)c1`: inactive: 4.88%.
`CCc1ccc(CNC(=O)C2CCCN(c3nnc(C)c4c(C)n(-c5ccc(OC)cc5)nc34)C2)cc1` (configuration not stated): the “activation” value is inactive: -8.61%.
To `Cc1c(C(=O)Nc2ccccc2Cl)sc2ncnc(N(C)C3CCCCC3)c12` belongs inactive: 5.74%; to `Cc1ccc(N2CC(c3nnc(Cc4ccc(F)cc4)o3)CC2=O)cc1` (configuration not stated), inactive: -9.57%; to `COc1ccccc1CNS(=O)(=O)c1cc(Br)cc2c1N(C(C)=O)C(C)C2` (configuration not stated), inactive: -11.4%.
Next, `O=C1COc2ccc(-c3cc(-c4ccc(F)cc4)c4c(n3)-c3cc(Cl)ccc3OC4)cc2N1`: inactive: -16.7%; `CC(C)c1ccc(NC(=O)C2CCCN(S(=O)(=O)c3cccc4nsnc34)C2)cc1` (configuration not stated): inactive: -18.7%.
To `COc1ccc2c(c1)CC(C(=O)Nc1cccc(C)c1C)CO2` (configuration not stated) belongs inactive: 0.123%; to `CC(CCc1ccccc1)NC(=O)Cn1c(=O)nc(-c2ccccc2F)c2cc(Cl)ccc21` (configuration not stated), inactive: -14.3%; to `COc1ccc(Cn2ccnc2SCC(=O)NC2CCCC2)cc1`, inactive: -1.36%.
Turning to `Cc1cccc(C)c1NC(=O)CSc1ncc2c(n1)-c1ccc(Cl)cc1N(Cc1ccccc1)S2(=O)=O`, the “activation” value was inactive: -16.1%.
To `Cc1oc(-c2ccccc2F)nc1CSCC(=O)NCc1ccccc1` belongs inactive: -17.5%.
